Source: publication PMC4336329 (PLoS ONE, 2015)
In all, about 310,000 compounds went through this assay and about 2,200 (0.71%) showed an effect of 50% or more. Effects have a minus sign here. Some of the results follow.

Molecular target: human ether-à-go-go-related gene (hERG) potassium channel (human, UniProt Q12809)
Assay: primary screen, population patch clamp on CHO cells stably expressing hERG

Chain of human ether-à-go-go-related gene (hERG) potassium channel (Q12809 whole entry, looked up): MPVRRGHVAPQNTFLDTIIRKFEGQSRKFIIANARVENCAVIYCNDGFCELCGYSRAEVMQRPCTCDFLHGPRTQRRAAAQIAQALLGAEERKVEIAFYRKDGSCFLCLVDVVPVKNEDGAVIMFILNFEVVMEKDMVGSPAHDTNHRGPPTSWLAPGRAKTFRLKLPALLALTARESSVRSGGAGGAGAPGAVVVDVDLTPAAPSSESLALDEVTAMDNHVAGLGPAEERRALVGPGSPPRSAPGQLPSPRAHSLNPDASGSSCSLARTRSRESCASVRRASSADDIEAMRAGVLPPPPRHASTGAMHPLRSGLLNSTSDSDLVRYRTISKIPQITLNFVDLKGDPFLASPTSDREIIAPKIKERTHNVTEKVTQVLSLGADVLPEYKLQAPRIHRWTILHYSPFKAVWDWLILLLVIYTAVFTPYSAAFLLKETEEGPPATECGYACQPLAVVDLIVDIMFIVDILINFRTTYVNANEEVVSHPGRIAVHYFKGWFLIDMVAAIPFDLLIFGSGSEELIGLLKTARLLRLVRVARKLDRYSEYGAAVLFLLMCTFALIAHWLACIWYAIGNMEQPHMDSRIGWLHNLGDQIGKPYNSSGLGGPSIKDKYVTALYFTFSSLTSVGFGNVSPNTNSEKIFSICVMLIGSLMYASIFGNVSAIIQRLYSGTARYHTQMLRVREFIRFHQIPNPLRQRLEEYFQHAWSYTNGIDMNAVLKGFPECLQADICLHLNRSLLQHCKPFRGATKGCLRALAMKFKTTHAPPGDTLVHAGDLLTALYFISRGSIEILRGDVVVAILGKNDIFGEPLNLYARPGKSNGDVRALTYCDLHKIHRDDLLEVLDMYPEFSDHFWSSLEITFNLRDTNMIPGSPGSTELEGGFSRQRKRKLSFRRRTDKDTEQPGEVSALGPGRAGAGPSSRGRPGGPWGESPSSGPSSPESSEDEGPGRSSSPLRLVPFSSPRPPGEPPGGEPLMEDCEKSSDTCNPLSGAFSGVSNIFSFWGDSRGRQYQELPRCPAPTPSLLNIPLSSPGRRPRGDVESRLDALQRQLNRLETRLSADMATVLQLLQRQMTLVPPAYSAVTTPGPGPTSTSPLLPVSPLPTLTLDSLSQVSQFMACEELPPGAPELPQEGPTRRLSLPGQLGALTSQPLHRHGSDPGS

| Structure (SMILES) | hERG current change (%, negative = inhibition) at 1uM |
| --- | --- |
| Cc1c(O)ccc2c(=O)c(-c3nncn3-c3ccccc3)coc12 | 16.7% |
| O=C(Cc1ccc(S(=O)(=O)N2CCCCC2)s1)Nc1ccc(F)c(F)c1 | 8.33% |
| NC1=NC(=O)/C(=C/c2cn(Cc3ccccc3)c3ccccc23)S1 | 0.743% |
| CCC(=O)Nc1cccc(C2=NOC3(C2)C[C@@H](C(N)=O)N(C(=O)COc2ccc(Cl)cc2)C3)c1 (stereo partly drawn) | 13.1% |
| COc1ccc(-c2nc(CSCC(=O)NC3CCCc4ccccc43)c(C)o2)cc1OC (stereo not drawn) | 10.1% |
| COc1ccc(CN2CCOCCOCCN(Cc3ccc(OC)cc3)CCOCCOCC2)cc1 | -84.1% |
| COC(=O)[C@H](CCSC)NC(=O)Nc1ccc(C(C)=O)cc1 | 11.9% |
| Cc1ccc(S(=O)(=O)NCC(=O)OCC(=O)c2c(N)n(C)c(=O)n(C)c2=O)cc1 | 20.1% |
| COC(=O)c1sc(NC(=O)COc2ccc(C)cc2)nc1C | 11.3% |
| CCCCN(C)CCCNC(=O)c1ccc2c(c1)N(CC)C(=O)c1ccccc1S2=O (stereo not drawn) | 21% |
| CN1CCC(Oc2ccccc2Sc2ccc(C(F)(F)F)cc2)CC1.O=C(O)C(=O)O | -8.32% |
| CC(=O)c1cc2c(cc1NC(=O)c1ccc(C)cc1)OCCO2 | 7.48% |
| COC(=O)CSc1nc(N)c(C#N)c(-c2ccco2)c1C#N | 9.92% |
| CC(C)CN1C(=O)C(=O)N(CC(=O)NC2CCCc3ccccc32)C1=O (stereo not drawn) | 5.68% |
| Cn1c(Cn2nnc3ccccc32)nnc1SCC(=O)Nc1nccs1 | 10.6% |
| Cc1cc(=O)[nH]c(N2CCN(Cc3ccccc3)CC2)n1 | 2.91% |
| COc1ccc(NC(=S)c2ccncc2)cc1 | 17% |
| CC(C)(C)C1CCC(C(=O)Nc2ccccc2N2CCOCC2)CC1 (stereo not drawn) | 12% |
| NS(=O)(=O)c1ccc(CCNC(=O)C2CCCCC2)cc1 | 16.6% |
| C=CCN1CCN(C(=O)CCc2ccccc2)CC1 | 15.5% |
| CC(C)NC(=O)NC(=O)COc1ncnc2sccc12 | 5.46% |
| CSc1nsc(/C=C/Nc2ccc(C)cc2)c1C#N | 10.5% |

| Structure (SMILES) | hERG current change (%, negative = inhibition) at 1uM |
| --- | --- |
| COc1ccc(C(=O)NCc2ccc3c(c2)OCO3)cc1S(=O)(=O)N(C)Cc1ccccc1 | 6.12% |
| CCN(CC)C(=O)c1sc2c(c1C)c(=O)n(-c1ccc(C)c(C)c1)c(=O)n2CC(=O)NCC1CCCO1 (stereo not drawn) | -4.87% |
| CCCn1c(CCC(=O)O)nc2cc(S(N)(=O)=O)ccc21 | 12.3% |
| CCN(CC(=O)Nc1c(F)cccc1F)C(=O)c1cccc(S(=O)(=O)N2CCCCCC2)c1 | 5.71% |
| CCn1ncc([N+](=O)[O-])c1C(=O)Nc1ccc(C(=O)N2CCCCC2)cc1 | 1.34% |
| Cc1ccc(SCc2nc(-c3ccncc3)no2)cc1 | 3.02% |
| CCc1ccc(-c2nc(SCC(=O)N(CCOC)c3c(N)n(Cc4ccccc4)c(=O)[nH]c3=O)n[nH]2)cc1 | 10.9% |
| Cc1cccc(C(=O)OCC(=O)c2c(N)n(CC(C)C)c(=O)n(C)c2=O)c1O | -8.55% |
| C=CCCC(=O)Nc1nc(C)c(-c2csc(Nc3cc(OC)ccc3OC)n2)s1 | -2.25% |
| COc1ccc(C(C(=O)NC2CCCC2)N(C(=O)c2ccoc2C)c2ccccc2)cc1 (stereo not drawn) | 16.4% |
| O=C(CCC(=O)N1CCN(c2ccc(F)cc2)CC1)c1ccc(Cl)cc1 | 0.0178% |
| O=C(NCCc1ccc2c(c1)OCO2)C1CCN(S(=O)(=O)c2ccc(Cl)cc2)CC1 | 0.439% |
| COCCn1c(C)cc(C(=O)CSc2ccc(NC(C)=O)cc2)c1C | 15.4% |
| CN(C)c1ccc(/C=C/C(=O)c2cccc(Br)c2)cc1 | 2.06% |
| N#Cc1c(-c2ccccc2)ccnc1N1CCOCC1 | 11.1% |
| CCCCNC(=O)CSc1nc2c(sc(=S)n2-c2cc(Cl)ccc2OC)c(=O)[nH]1 | 14.8% |
| COc1ccc(N2CCN(C(=O)CSc3nnc4n3C(C)(C)Cc3ccccc3-4)CC2)cc1 | -0.619% |
| CCN(CC)S(=O)(=O)c1ccc(S(=O)(=O)Nc2cc3c(cc2C(C)=O)OCO3)cc1 | 7.6% |
| CC(=O)c1ccc(OCC(O)CN2CCN(CCO)CC2)cc1.Cl (stereo not drawn) | 12.3% |
| Cc1ccc(/C=N/n2c(-c3ccccn3)n[nH]c2=S)o1 | 13.5% |
| CC(C)(O)C#Cc1ccc([C@@H]2C[C@H]3CN(c4ccccc4)C(=O)[C@]34CCCN24)s1 | 11% |
| CCCc1cc(=O)[nH]c(SCC(=O)c2c(N)n(C3CC3)c(=O)[nH]c2=O)n1 | 3.05% |

| Structure (SMILES) | hERG current change (%, negative = inhibition) at 1uM |
| --- | --- |
| COc1cccc(OC)c1OCCCc1c(C)n[nH]c1C | 2.68% |
| CC(C)C(NC(=O)C12CC3CC(CC(C3)C1)C2)C(=O)N/N=C/C1=C(N2CCOCC2)C(=C\c2cccc([N+](=O)[O-])c2)/CC1 (stereo not drawn) | 3.54% |
| Cl.c1ccc(-c2csc(=Nc3cccnc3)n2CC2CCCO2)cc1 (stereo not drawn) | 6.32% |
| CN(C)c1ccnc(Oc2ccc(C(C)(C)C)cc2)c1C#N | -6.53% |
| CCN1C(=O)N[C@@H](CCc2ccccc2)C(C(C)=O)=C1C | 14.7% |
| O=C(N/N=C/c1cccs1)c1ccco1 | 13.3% |
| Cc1cc(C(=O)Nc2nnc(-c3ccccc3)s2)no1 | 11.4% |
| c1ccc(CN2CCN(c3nc(-c4ccccn4)nc4ccccc34)CC2)cc1 | 8.49% |
| Cc1nnc(SCC(=O)NC2CCCC2)s1 | 6.18% |
| Cn1c(O)c(C(=Nc2ccc(F)cc2)c2ccccc2Cl)c(=O)n(C)c1=O | 14.9% |
| CCc1nnc(NC(=O)CC23CC4CC(CC(C4)C2)C3)s1 | 13.1% |
| CC(C)CC[n+]1ccn(C2=C([O-])c3ccccc3C(=O)/C2=N\S(=O)(=O)c2ccccc2)c1 | 13.3% |
| O=[N+]([O-])c1ccc(Cl)c(S(=O)(=O)Nc2cccc(-c3ccc(N4CCOCC4)nn3)c2)c1 | -4.25% |
| O=C(COC(=O)c1nc(Cl)c(Cl)c(Cl)c1Cl)c1ccc[nH]1 | 0.96% |
| Cc1c(C(=O)Nc2ccc(S(=O)(=O)Nc3ncccn3)cc2)oc2ccc(F)cc12 | 15.1% |
| CC(=O)Nc1ccc(NC2=CC(=O)CC(C)(C)C2)cc1 | 7.82% |
| CC(C)Nc1nc(-c2cccnc2)nc(-c2ccc(Cl)cc2)c1C#N | 5.3% |
| Cc1cccc(N2CCN(C(=O)CCn3c(=S)[nH]c4cc5c(cc4c3=O)OCO5)CC2C)c1 (stereo not drawn) | 5.83% |
| O=C(/C=C/c1ccc(Cl)cc1)N1CCN(c2ccc(Cl)cc2[N+](=O)[O-])CC1 | -81.4% |
| CC(C)(Oc1ccc(Cl)cc1)C(=O)Nc1cccnc1 | -10.2% |
| Cc1ccc(S(=O)(=O)N2CCN(C(=O)COC(=O)CCOc3ccc(C(C)(C)C)cc3)CC2)cc1 | 4.89% |
| Cc1nc2nc(COc3ccccc3)[nH]n2c(=O)c1Cl | 11% |

| Structure (SMILES) | hERG current change (%, negative = inhibition) at 1uM |
| --- | --- |
| O=C(Nc1ccc(N2CCOCC2)cc1)c1cccnc1 | 11% |
| Cc1ccc(C(=O)c2coc3ccc(O)c(Cl)c23)cc1 | -4.28% |
| Cc1nc2[nH]c(=O)c3c(n2n1)NC1=C(C(=O)CC(C)(C)C1)C3c1ccc(F)cc1 (stereo not drawn) | 11.6% |
| CCCc1cc(C(=O)Nc2sc3c(c2C#N)CCC3)no1 | 16.8% |
| Cn1nc(C(C)(C)C)c([N+](=O)[O-])c1C(=O)Nc1ccccc1 | 4.24% |
| COc1ccc(N2CC(C(=O)N[C@H](C(=O)NC3CCCCC3)C(C)C)CC2=O)cc1 (stereo partly drawn) | 10.7% |
| CCOc1ccc(NC(=O)C2CCC(CNc3c(N4CCCCC4)c(=O)c3=O)CC2)cc1 (stereo not drawn) | 20.9% |
| CCOc1ccc(-c2cn(S(=O)(=O)c3cccc4nsnc34)nc2N)cc1 | 7.97% |
| COc1ccc(C)cc1S(=O)(=O)N(C)CC(=O)N1CCCCCC1 | 18.4% |
| COC(=O)C1=C(C)NC(=O)CC1c1cc2c(cc1Br)OCO2 (stereo not drawn) | 2.1% |
| NS(=O)(=O)c1ccc(N2C(=O)C3CC=CCC3C2=O)cc1 (stereo not drawn) | 9.34% |
| CCN(CC(=O)N1CCOCC1)S(=O)(=O)c1ccccc1 | 12.4% |
| CCCOc1cccc(C(=O)N(Cc2cccs2)C2CCS(=O)(=O)C2)c1 (stereo not drawn) | -4.8% |
| Cc1cccc(N2CCN(C(c3cccs3)c3nnnn3C(C)(C)C)CC2)c1C (stereo not drawn) | 1.13% |
| COc1ccccc1NC(=S)NC(NC(=O)c1ccco1)C(Cl)(Cl)Cl (stereo not drawn) | 4.44% |
| CCCC(=O)Nc1c(-c2cccc(OC)c2)c(=O)c2ccccc2n1C | 9.61% |
| O=C(N/N=C/c1cccnc1)NC12CC3CC(CC(C3)C1)C2 | 5.79% |
| O=C(Cn1nnc(-c2cccs2)n1)NCc1cccs1 | 5.95% |
| CC1(c2ccc3c(c2)OCCCO3)NC(=O)N(CC(=O)NCCc2ccccc2)C1=O (stereo not drawn) | 4.8% |
| COc1cc(C#N)c(NC(=O)CN2CCC(C(N)=O)CC2)cc1OC | 8.57% |
| COc1cccc(COC(=O)c2cc(=O)[nH]c3ccc(S(=O)(=O)N4CCOCC4)cc23)c1OC | -0.935% |
